# PubChem BioAssay (NCATS)
# Records with an inconclusive call do not appear. Calls come from the whole dose curve; as a rule, active = well fitted curve in the direction sought with a large enough effect; inconclusive = small, poorly fitted or top-dose-only effect, or another doubt; inactive = no such curve, though single readings can be large; an effect the other way counts as inactive or inconclusive. The source holds several records for some structures; these can differ, active in one and inactive in another. For part of its entries the source gives two or more results. This list holds those alone. There may be further records. The values listed for one entry are repeated measurements (runs, samples, wells, individuals or studies). A tag in brackets gives the origin of a value. Letters count within one entry.
# Assay: qHTS of pediatric cancer cell lines to identify multiple opportunities for drug repurposing: Primary screen for NB1643 cells (AID 1347099); note: nearly all actives have a fitted effect of over 50% in size
# Conditions: NB1643 neuroblastoma viability, CellTiter-Glo luminescence, 48 h; series mostly up to 46 µM
# Potency is the fitted concentration of half-maximal effect.
row,Compound,Potency
1,CCOC(=O)[C@H](CCc1ccccc1)N[C@H]1CS[C@H](c2cccs2)CN(CC(=O)O)C1=O,active: 662 nM [sample A] and inactive [sample B]
2,COc1cc2c(Nc3ccc(Br)cc3F)ncnc2cc1OCC1CCN(C)CC1,active: 18.7 µM [sample A] and inactive [sample B]
3,CC(C)Cn1cnc2c(N)nc3ccccc3c21,inactive [sample A] and active: 2.96 µM [sample B]
4,Cc1cc(NS(=O)(=O)c2ccc(N)cc2)no1,inactive [sample A] and active: 7.43 µM [sample B]
5,CC(C(=O)O)c1ccc2c(c1)CC(=O)c1ccccc1S2 (centres undefined),active: 1.48 µM [sample A] and inactive [sample B]
6,O=c1cc(O)c(Cl)c[nH]1,active: 1.48 µM [sample A] and inactive [sample B]
7,CCCCOc1ccc(CC(=O)NO)cc1,inactive [sample A] and active: 9.35 µM [sample B]
8,Cc1cccc(N(C)C(=S)Oc2ccc3ccccc3c2)c1,inactive [sample A] and active: 9.35 µM [sample B]
9,COc1ccc(C(=O)CC(=O)c2ccc(C(C)(C)C)cc2)cc1,inactive [sample A] and active: 1.66 µM [sample B]
10,CNC1CCCN(c2c(F)cc3c(=O)c(C(=O)O)cn(C4CC4)c3c2OC)C1 (centres undefined),active: 3.72 µM [sample A] and inactive [sample B]
11,COc1cnc(NS(=O)(=O)c2ccc(N)cc2)nc1,inactive [sample A] and active: 10.5 µM [sample B]
12,NC1(c2ccc(-c3nc4ccn5c(=O)[nH]nc5c4cc3-c3ccccc3)cc2)CCC1,active: 14.8 µM [sample A] and inactive [sample B]
13,O=S(=O)(O)CCS,active: 14.8 µM [sample A] and inactive [sample B]
14,Cc1nnc(NS(=O)(=O)c2ccc(N)cc2)s1,inactive [sample A] and active: 935 nM [sample B]

# Assay: qHTS of pediatric cancer cell lines to identify multiple opportunities for drug repurposing: Primary screen for BT-12 cells (AID 1347101); note: nearly all actives have a fitted effect of over 25% in size
# Conditions: BT-12 viability, CellTiter-Glo luminescence, 48 h; series mostly up to 57.3 µM
# Summary of the method: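 Cells (500-1,000/well) rested 5 h, then received compounds for 48 h; metabolically active cells were measured by CellTiter-Glo luminescence. Final concentrations spanned up to 46 µM (MIPE, 11-point) or 0.59 nM-46 µM (NPC, 8-point) in primary screens, 11-point in follow-ups.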
row,Compound,Potency
1,CCOC(=O)[C@H](CCc1ccccc1)N[C@H]1CS[C@H](c2cccs2)CN(CC(=O)O)C1=O,active: 4.85 µM [sample A] and inactive [sample B]
2,O=c1oc2c(O)c(O)cc3c(=O)oc4c(O)c(O)cc1c4c23,inactive [sample A] and active: 27.3 µM [sample B]
3,CC(C)Cn1cnc2c(N)nc3ccccc3c21,inactive [sample A] and active: 21.7 µM [sample B]
4,CC(C(=O)O)c1ccc2c(c1)CC(=O)c1ccccc1S2 (centres undefined),active: 2.43 µM [sample A] and inactive [sample B]
5,Cc1c(-c2ccc(O)cc2)n(Cc2ccc(OCCN3CCCCCC3)cc2)c2ccc(O)cc12,inactive [sample A] and active: 30.9 µM [sample B]
6,COc1ccc(C(=O)CC(=O)c2ccc(C(C)(C)C)cc2)cc1,inactive [sample A] and active: 6.11 µM [sample B]

# Assay: qHTS of pediatric cancer cell lines to identify multiple opportunities for drug repurposing: Primary screen for Rh18 cells (AID 1347102); note: nearly all actives have a fitted effect of over 65% in size
# Conditions: Rh18 rhabdomyosarcoma viability, CellTiter-Glo luminescence, 48 h; series mostly up to 46 µM
# Summary of the method: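 Viability after 48 h compound treatment at 37C, 500-1,000 cells/well, read as ATP luminescence with CellTiter-Glo. Primary screens used 11-point (MIPE, 0.78 nM-46 µM) or 8-point (NPC, 0.59 nM-46 µM) final concentrations; follow-up screens used 11-point dilutions.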
row,Compound,Potency
1,CCOC(=O)[C@H](CCc1ccccc1)N[C@H]1CS[C@H](c2cccs2)CN(CC(=O)O)C1=O,active: 1.66 µM [sample A] and inactive [sample B]
2,COC(=O)Nc1nc2ccc(Sc3ccccc3)cc2[nH]1,active: 11.9 µM [sample A] and inactive [sample B]
3,COc1cc2c(Nc3ccc(Br)cc3F)ncnc2cc1OCC1CCN(C)CC1,active: 18.7 µM [sample A] and inactive [sample B]
4,Nc1nc(F)nc2c1ncn2[C@@H]1O[C@H](CO)[C@@H](O)[C@@H]1O,inactive [sample A] and active: 372 nM [sample B]
5,CC[C@H](C)C(=O)O[C@H]1C[C@@H](C)C=C2C=C[C@H](C)[C@H](CC[C@@H]3C[C@@H](O)CC(=O)O3)[C@H]21,active: 10.6 µM [sample A] and inactive [sample B]
6,COc1ccc(C(=O)CC(=O)c2ccc(C(C)(C)C)cc2)cc1,inactive [sample A] and active: 8.33 µM [sample B]
7,Cc1nnc(NS(=O)(=O)c2ccc(N)cc2)s1,inactive [sample A] and active: 3.32 µM [sample B]

# Assay: qHTS of pediatric cancer cell lines to identify multiple opportunities for drug repurposing: Primary screen for OHS-50 cells (AID 1347103); note: nearly all actives have a fitted effect of over 40% in size
# Conditions: OHS-50 osteosarcoma viability, CellTiter-Glo luminescence, 48 h; series mostly up to 57.3 µM
# Excerpt: Drug repurposing or repositioning has been offered as a strategy for drug development in oncology programs. This approach has special potential for childhood cancers and other rare or orphan diseases, where the expected return on new drug development has been a disincentive to pharmaceuticals.
# In this project we exploit the poly-pharmacology of drugs to discover new indications via phenotypic screening of a panel of 19 well-characterized cell lines derived from solid tumors seen in children and adolescents. The goal is to identify approved drugs with previously unrecognized anticancer properties that has the potential to reveal new mechanisms and biological processes involved in carcinogenesis or drug resistance. We employed a titration-based paradigm (quantitative high-throughput screening or qHTS), where all compounds were tested at multiple concentrations for their effect on cell viability. Concentration-response curves (CRCs) were derived directly from the primary screen, and both potency and efficacy values were used to identify compounds with robust bioactivity profiles. We screened the NIH Chemical Genomics Center (NCGC) Pharmaceutical Collection (NPC) and Mechanism Interrogation Plate (MIPE) small molecule collections of approved and investigational compounds against these cell lines; and measured metabolically active cells after 48 hours of compound treatment as a proxy for cell viability.
# Assay Submitter: Nathalia J. Martinez, National Center for Advancing Translational Sciences, National Institutes of Health, Rockville, MD, USA; email: natalia.martinez@nih.gov
# [1] Shen, M et al. Quantitative high-throughput phenotypic screening of pediatric cancer cell lines identifies multiple opportunities for drug repurposing. Oncotarget 2017 Dec 19;9(4):4758-4772. PMID 29435139.
# The cells were obtained from University of North Carolina (UNC), Pediatric Preclinical Testing Program (PPT), and Coriell Institute (CI).
# qHTS cell viability assay:
# Cells were assayed in growth media at a density of 500-1,000 cells/well. Five microliters of cells were dispensed into 1,536-well, white, solid-bottom, TC-treated plates (Greiner Bio One) using a multidrop dispenser and incubated at 37 degrees C, 5% CO2, under a humidified atmosphere for 5 hours. Twenty-three nanoliters of compounds and controls (neutral control DMSO or positive control bortezomib at final concentration of 2.3 µM) were subsequently transferred by Kalypsys pintool. For primary screens, the MIPE collection was tested at 11-point dilutions (final concentrations range from 0.78 nM to 46 µM) and the NPC collection at 8-point dilutions (final concentrations range from 0.59 nM to 46 µM). Compounds tested in follow-up screens were assayed at 11-point dilutions. Cells were incubated for 48 hours, followed by addition of 3 µL of CellTiter-Glo (Promega). After a 15 min incubation at room temperature, samples were analyzed for luminescence intensity using a ViewLux High-throughput CCD imager equipped with clear filters.
row,Compound,Potency
1,CCOC(=O)[C@H](CCc1ccccc1)N[C@H]1CS[C@H](c2cccs2)CN(CC(=O)O)C1=O,active: 1.53 µM [sample A] and inactive [sample B]
2,COc1cc2c(Nc3ccc(Br)cc3F)ncnc2cc1OCC1CCN(C)CC1,active: 21.7 µM [sample A] and inactive [sample B]
3,CC(C)Cn1cnc2c(N)nc3ccccc3c21,inactive [sample A] and active: 19.3 µM [sample B]
4,CC(C(=O)O)c1ccc2c(c1)CC(=O)c1ccccc1S2 (centres undefined),active: 8.63 µM [sample A] and inactive [sample B]
5,Clc1ccccc1CN1CCc2sccc2C1,active: 1.93 µM [sample A] and inactive [sample B]
6,Cc1c(-c2ccc(O)cc2)n(Cc2ccc(OCCN3CCCCCC3)cc2)c2ccc(O)cc12,inactive [sample A] and active: 30.9 µM [sample B]
7,Cc1nnc(NS(=O)(=O)c2ccc(N)cc2)s1,inactive [sample A] and active: 3.85 µM [sample B]
